# Experimental data published in PubChem BioAssay AID588342 (National Center for Advancing Translational Sciences (NCATS), 2011).
# Among all 360,000 compounds or so, about 25,000 (6.9%) were called active. Inconclusive results, whose numbers are uncertain, are shown with a selection of clear calls. The call rests on the fitted dose curve; in most records, active means well fitted inhibition curve with a large enough effect; inconclusive means small, poorly fitted or top-dose-only effect; inactive means flat fitted curve, though single readings scatter. A potency beside an inconclusive call is a rough fit, not a confirmed value.
# Biological target: Luciferin 4-monooxygenase (Photinus pyralis) (UniProt P08659)
# Assay: qHTS profiling assay for firefly luciferase inhibitor/activator using purifed enzyme and Km concentrations of substrates (counterscreen for miR-21 project); further: nearly all actives have a fitted effect of over 55% in size;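 on activity change, negative = inhibition: plate controls were vehicle for no effect and reference inhibitor for full effect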
# Settings: purified FLuc, luminescence inhibition; series mostly up to 57.5 µM; activity change, negative = inhibition: at the top concentration
# In short: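 Purified P. pyralis luciferase, 10 nM final, with Km-level 10 uM D-luciferin and 10 uM ATP in 50 mM Tris acetate pH 7.5, 10 mM Mg acetate, 0.01% Tween-20, 0.05% BSA; 6-point qHTS titration about 60 µM downward; luminescence read.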
# Potency means the concentration at half of the fitted maximal effect; tags describe the fitted curve by direction and shape.
# Sequence of UniProt P08659 (P08659 whole entry, looked up): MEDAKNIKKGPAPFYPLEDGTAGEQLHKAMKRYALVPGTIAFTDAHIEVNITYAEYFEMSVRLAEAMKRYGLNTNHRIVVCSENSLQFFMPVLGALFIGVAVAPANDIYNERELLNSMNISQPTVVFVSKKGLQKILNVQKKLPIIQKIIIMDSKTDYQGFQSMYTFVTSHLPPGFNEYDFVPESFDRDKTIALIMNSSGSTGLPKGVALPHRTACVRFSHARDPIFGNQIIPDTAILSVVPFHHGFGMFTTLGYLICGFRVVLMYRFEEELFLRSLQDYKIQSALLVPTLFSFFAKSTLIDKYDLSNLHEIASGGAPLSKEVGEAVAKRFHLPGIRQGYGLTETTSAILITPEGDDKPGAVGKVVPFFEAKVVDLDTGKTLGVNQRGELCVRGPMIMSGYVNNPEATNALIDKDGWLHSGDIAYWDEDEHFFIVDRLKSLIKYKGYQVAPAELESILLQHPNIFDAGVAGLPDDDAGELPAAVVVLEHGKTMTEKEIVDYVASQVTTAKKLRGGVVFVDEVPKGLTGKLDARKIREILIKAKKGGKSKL
Compound,Potency,"activity change, negative = inhibition"
N#C/C(=C(/O)C(Cl)(Cl)Cl)c1nc2ccccc2[nH]1,"inconclusive: 21.3 µM [inhibitor, single point]",–
CCOC(=O)c1ccc(N2C(=O)C=CC2=O)cc1,"inconclusive: 10.7 µM [inhibitor, partial curve]",–
CC(=O)c1cccc(NC(=S)NC(=O)CC(C)(C)C)c1,"inconclusive: 19 µM [inhibitor, partial curve, poor fit]",–
Cc1nn(Cc2ccc(Cl)c(Cl)c2)c(C)c1NC(=O)c1noc2c1CCCCC2,–,inactive: 2.49%
COc1cc(NC(=S)N2CCCC(CO)C2)cc(OC)c1 (stereo not given),"inconclusive: 26.9 µM [inhibitor, partial curve, poor fit]",–
CC1C(=O)N2CCCc3cc(NC(=O)c4ccccc4Br)cc1c32 (stereo not given),"inconclusive: 26.9 µM [inhibitor, single point]",–
CC(C)(C)C(=O)Nc1cccc(-c2cn3cccnc3n2)c1,–,inactive: -3.03%
COc1ccc2nc(NC(=O)CCNC(=O)c3ccco3)sc2c1,active: 12 µM,–
COc1ccc(NC(=O)N(Cc2cc3cc(OC)c(OC)cc3[nH]c2=O)CC2CCCO2)cc1 (stereo not given),"inconclusive: 37.9 µM [inhibitor, partial curve, poor fit]",–
CCn1c(SCC(=O)c2ccccc2)nnc1-c1ccoc1C,"inconclusive: 37.9 µM [inhibitor, single point]",–
COc1ccc(-c2cc(C(F)(F)F)c3c(=O)n(-c4ccccc4)[nH]c3n2)cc1,"inconclusive: 26.9 µM [inhibitor, single point]",–
O=C(N/N=C/c1cn(-c2cccs2)nc1-c1ccccc1)c1ccccc1O,active: 9.53 µM,–
Cc1ccc(CC(CC(=O)Nc2cccc(C(F)(F)F)c2)C(=O)O)cc1 (stereo not given),"inconclusive: 23.9 µM [inhibitor, single point]",–
O=C(NCc1ccccc1Cl)c1cc2c(s1)-c1ccc(Cl)cc1SC2,–,inactive: -11.2%
CSc1ccccc1NC(=O)c1ccc(CN2CCOCC2)cc1,"inconclusive: 23.9 µM [inhibitor, single point]",–
COc1cc2ccccc2cc1C(=O)Nc1ccccc1N1CCCC1,"inconclusive: 16.9 µM [inhibitor, partial curve]",–
Cc1nc(N2CCN(C)CC2)c2cc(-c3ccccc3)sc2n1,"inconclusive: 26.9 µM [inhibitor, single point]",–
Cc1ccc(NC(=O)c2cc(=O)c3ccccc3o2)c(C)c1,"inconclusive: 23.9 µM [inhibitor, partial curve, poor fit]",–
CC(NC(=O)c1cc(S(=O)(=O)N2CCOCC2)cn1C)c1ccccc1 (stereo not given),–,inactive: 0.232%
O=C(Nc1ccc(N2CCOCC2)cc1)c1cccc2ccccc12,"inconclusive: 30.1 µM [inhibitor, partial curve, poor fit]",–
Cc1ccc(NC(=O)CN2C(=O)CCc3cc(S(=O)(=O)N4CCOCC4)ccc32)cc1F,–,inactive: -3.64%
Cc1cccc(CNC(=O)CCn2c(=O)c3cccn3c3ccc(F)cc32)c1,–,inactive: -1.06%
O=C(Nc1ccc(N2CCOCC2)c([N+](=O)[O-])c1)c1ccco1,active: 16.9 µM,–
O=C(NC1CCCCC1)C(c1ccncc1)N(C(=O)c1ccco1)c1ccc(F)cc1 (stereo not given),–,inactive: 1.17%

Compound,Potency,"activity change, negative = inhibition"
COc1ccccc1N1CCN(C(=O)c2cc(-c3ccc4c(c3)OCO4)on2)CC1,"inconclusive: 21.3 µM [inhibitor, single point]",–
CCOC(=O)c1c(-c2ccccc2)oc2ccc(NS(=O)(=O)c3cc(C)c(C)cc3C)cc12,–,inactive: -2.46%
COc1ccc(NC(=O)COC(=O)c2c(F)cccc2Cl)cc1OC,"inconclusive: 23.9 µM [inhibitor, single point]",–
O=C(CN1N=C(c2ccc(Cl)cc2)CCC1=O)NCCc1ccc(Cl)cc1,–,inactive: -6.1%
COc1c(/C=N/NC(=O)c2ccncc2)c(CCN(C)C(C)=O)cc2c1OCO2,"inconclusive: 23.9 µM [inhibitor, single point]",–
COc1ccc(NC(=O)CSc2nc(-c3ccco3)cc(C(F)(F)F)n2)cc1OC,–,inactive: 2.75%
Cc1nc(N2CCN(C(=O)c3ccco3)CC2)c2c3c(sc2n1)CC(C)CC3 (stereo not given),"inconclusive: 37.9 µM [inhibitor, partial curve, poor fit]",–
O=C(/C=C/c1ccccc1)NC(=S)NNC(=O)c1cccnc1,"inconclusive: 30.1 µM [inhibitor, partial curve, poor fit]",–
CCOC(=O)c1cc2c(nc1N)CC(C)(C)OC2,"inconclusive: 37.9 µM [inhibitor, partial curve, poor fit]",–
COc1ccc(S(=O)(=O)N2CCOC2CNC(=O)C(=O)NCCCn2ccnc2)cc1OC (stereo not given),"inconclusive: 42.6 µM [inhibitor, partial curve, poor fit]",–
Cc1cc(-c2nnc(CCC(=O)N3CCN(Cc4cccc(F)c4)CC3)o2)c(C)o1,–,inactive: -15.1%
CCc1ccc(OCCNC(=O)c2ccco2)cc1,"inconclusive: 37.9 µM [inhibitor, single point]",–
Cc1c(/C=N\NC(=O)C2COc3ccccc3O2)c2ccccc2n1C (stereo not given),"inconclusive: 12 µM [inhibitor, partial curve]",–
CC1CCCc2sc3nc(SCC(=O)c4ccc(Br)cc4)nc(N)c3c21 (stereo not given),–,inactive: -1.23%
COCCn1c(C)cc(C(=O)COC(=O)C2CC(=O)N(CCc3ccc(OC)c(OC)c3)C2)c1C (stereo not given),active: 10.7 µM,–
Clc1ccc(SCc2cn3cccnc3n2)cc1,"inconclusive: 26.9 µM [inhibitor, partial curve, poor fit]",–
O=C(NCc1ccco1)C(c1ccncc1)N(CCC1=CCCCC1)C(=O)Cn1nnc2ccccc21 (stereo not given),–,inactive: -1.48%
CCOC(=O)c1ccc(NC(=O)CC2Sc3ncnn3C2=O)cc1 (stereo not given),"inconclusive: 23.9 µM [inhibitor, single point]",–
CC(C)Oc1ccccc1NC(=O)CSc1nc2ccccc2c(=O)n1C,–,inactive: 3.58%
CCN(CC)S(=O)(=O)c1cccc(C(=O)OC2CCOC2=O)c1 (stereo not given),–,inactive: 0.925%
CN(C)C(=O)c1cc(C(=O)c2ccccc2)c[nH]1,"inconclusive: 21.3 µM [inhibitor, single point]",–
COc1ccc2nc3oc(C(=O)NC4CCN(Cc5ccccc5)CC4)cc3cc2c1,"inconclusive: 23.9 µM [inhibitor, partial curve, poor fit]",–
Cc1ccc(NC(=O)c2ccoc2C)cc1C,"inconclusive: 9.53 µM [inhibitor, single point]",–
CC(C)CCN1CCC(C)(NC(=O)c2ccccc2)C1=O (stereo not given),–,inactive: 0.614%

Compound,Potency,"activity change, negative = inhibition"
C/C(=N\NC(=O)Cn1ccc(C(F)(F)F)n1)c1ccc2c(c1)OCO2,–,inactive: -7.4%
O=C(NNC1=NCCCCC1)Nc1ccc(Cl)cc1,"inconclusive: 21.3 µM [inhibitor, single point]",–
COc1cccc(C(=O)NC2CCN(CC(=O)NCc3ccccc3F)CC2)c1,–,inactive: -0.63%
COc1cccc(/C=C2\SC(=S)N(C(Cc3ccccc3)C(=O)O)C2=O)c1 (stereo not given),"inconclusive: 21.3 µM [inhibitor, single point]",–
Cc1ccc(N2CC(NC(=O)c3cccs3)CC2=O)cc1C (stereo not given),–,inactive: -9.95%
Cc1sc2ncnc(NCC(c3ccco3)N(C)C)c2c1C (stereo not given),"inconclusive: 37.9 µM [inhibitor, partial curve, poor fit]",–
C(=N\n1cnnc1)/c1ccc(-c2ccccc2)cc1,"inconclusive: 26.9 µM [inhibitor, single point]",–
Cc1cc(NS(=O)(=O)c2ccc(NC(=O)c3cc4ccccc4o3)cc2)no1,"inconclusive: 23.9 µM [inhibitor, single point]",–
CCn1c(SCC(=O)c2ccc3c(c2)OCCO3)nnc1C(C)C,"inconclusive: 21.3 µM [inhibitor, partial curve, poor fit]",–
CCCCOC(=O)c1ccc(Nc2ncnc3nc[nH]c23)cc1,"inconclusive: 3.79 µM [inhibitor, partial curve, poor fit]",–
O=C1OC(/C=C/c2ccc(Cl)cc2Cl)=NC/1=C\c1cccs1,"inconclusive: 19 µM [inhibitor, partial curve, poor fit]",–
CCN=c1scc(C)n1/N=C/c1ccsc1,active: 16.9 µM,–
CN(C)CCCNc1cc(C(C)(C)C)nc2c(-c3ccc(Cl)cc3)cnn12,"inconclusive: 30.1 µM [inhibitor, single point]",–
CC(C)(C=O)C1=CC(=O)c2ccccc2C1=O,"inconclusive: 37.9 µM [inhibitor, single point]",–
Cc1nc(SCC(=O)NCC2CCCO2)c2c3c(sc2n1)CCCC3 (stereo not given),"inconclusive: 37.9 µM [inhibitor, partial curve, poor fit]",–
Oc1ccc(-c2n[nH]c(=S)n2-c2ccc3c(c2)OCCO3)c(O)c1,"inconclusive: 21.3 µM [inhibitor, single point]",–
Cc1ccc(-c2cn3c(n2)SCC3)cc1,"inconclusive: 15.1 µM [inhibitor, partial curve, poor fit]",–
O=c1cc(-c2ccccc2)nc(SCc2nc(-c3ccccc3Cl)no2)[nH]1,"inconclusive: 16.9 µM [inhibitor, partial curve]",–
Cc1[nH]nc(SCC(=O)NC2CCCC2)c1[N+](=O)[O-],"inconclusive: 30.1 µM [inhibitor, single point]",–
COc1ccc(CN=Cc2c(O)[nH]c3ccccc23)cc1,"inconclusive: 21.3 µM [inhibitor, partial curve, poor fit]",–
O=C(CSc1nnc(SCc2ccccc2Cl)s1)N/N=C/c1c[nH]c2ccccc12,"inconclusive: 8.49 µM [inhibitor, partial curve, poor fit]",–
CNC(=O)/C(C#N)=C/c1ccc(-c2nc3ccccc3s2)o1,"inconclusive: 1.9 µM [inhibitor, full curve]",–
